Laboratory results as given in the supplement of paper PMC10126150.
Values marked as one replicate rest on one cluster of the flow cell; about a third of the high ones do not repeat.

Tested on: ATP
Assay: switch fluorescence ratio, 500 uM ATP over buffer (Cy3 cluster intensity, sum of 5 cycles each) (fold (ratio)); higher = stronger signal-on switching upon ATP binding; sequences stand for … in TCGTCGGCAGCGTCAGATGTGTATAAGAGACAGTTTTTTTTTTTTTTTTTTTTTTTTT…TC
Details: aptamer strand: ATP DNA aptamer (quencher-CACCTGGGGGAGTATTGCGGAGGAAGG + anchor), 100 nM annealed; ATP concentration: 500 uM; one replicate
Procedure, shortened: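 Cy3-labelled switching-strand clusters on a modified Illumina MiSeq flow-cell were annealed to 100 nM quencher-labelled ATP aptamer, imaged in selection buffer, then imaged after 15 min with 500 uM ATP at 22 °C. Five buffer/ATP cycles ran, with NaOH stripping and re-annealing between them. The fluorescence ratio is summed target-cycle over summed buffer-cycle Cy3 intensity per cluster, averaged per switch-domain sequence. Clusters outside 100-1000 RFU were excluded.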
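Also: ATP exposure 15 min at 22 °C before imaging.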

Row | Sequence | switch fluorescence ratio
1 | TACGGGCCTA | 1.01
2 | TTGATTAACG | 1.02
3 | GGAATAGTGT | 0.998
4 | GCGGTTGTTG | 0.964
5 | ATCATCCGGC | 1.14
6 | GTTAAAGTGT | 0.989
7 | CGTTAACGGA | 1.04
8 | TAGTTGTTAG | 0.915
9 | TTCGAGGAGT | 1.01
10 | AACCCCATA | 1.08
11 | TCTCCCGATA | 1.89
12 | TAATATTTGG | 0.997
13 | ATGAGTCGGG | 1.03
14 | GGTCTCTTCA | 1.04
15 | TGGAACGTGT | 1.01
16 | CCAATCGGAG | 1.01
17 | ACCCAGCGGC | 1.13
18 | ATATTTGTTG | 0.956
19 | CCTAATGAGG | 0.996
20 | CAGTATGCTT | 0.955
21 | TAGGGCTTTA | 1.01
22 | AGACCTAGCT | 1.04
23 | CTATCAACCA | 0.998

Row | Sequence | switch fluorescence ratio
24 | CAGCTGGTGA | 0.988
25 | TTTAAACCAA | 1.04
26 | TTTGATGACT | 1
27 | ACCCGGGGTA | 1.02
28 | AAGAGGGTGT | 1.04
29 | CGGGCGGA | 1.04
30 | TCCAAATGAC | 1.17
31 | TGATTGGCTC | 0.959
32 | GACATAGAT | 1.02
33 | TGTGTTGCGG | 0.952
34 | AATGGGTTTC | 0.99
35 | AGTTAAATTG | 0.985
36 | AAGGGTTTTA | 0.978
37 | ACTAGTTGT | 1
38 | TATGAATACA | 0.991
39 | ATAGATTGGT | 0.982
40 | GCATGTCGTG | 1.01
41 | TTCATTGTTG | 0.962
42 | CATAGCCACG | 1.03
43 | TGTGGGTCGA | 0.959
44 | TGCCATTCAA | 1.04
45 | CTTAGCAGTG | 1.03
46 | TCGGGTTACT | 0.998

Row | Sequence | switch fluorescence ratio
47 | TTAGCTTA | 1.01
48 | ATCGCAGGGC | 1.55
49 | CAAGGGACGT | 1.07
50 | GTGGCAGAAG | 1.02
51 | TAATGGAGCC | 0.98
52 | ATTAGTGCGG | 0.967
53 | GTGGCATTGG | 1.02
54 | CACTTTTGGA | 1.02
55 | CGACGGGTG | 1.1
56 | CCGATAAAGG | 1.48
57 | GCGTGGTGGA | 1.03
58 | GAATTGCGCA | 0.995
59 | TTGAGAAACT | 1.04
60 | CATGACGGCC | 0.894
61 | GTTGCTTGC | 0.994
62 | TGGTGTCGCT | 1.01
63 | TTATCTGTGG | 0.995
64 | TCGACGACAT | 1.86
65 | GGTCCAGTGG | 1.04
66 | GGCCCGTGTT | 1.03
67 | TAAGGGCCTG | 0.99
68 | ATGTTGACTC | 1.03
69 | ACTCAGGGGA | 1.13

Row | Sequence | switch fluorescence ratio
70 | CAGGAGTAGG | 1.03
71 | TTATAATTGG | 1.02
72 | TGTGGATTGT | 1.02
73 | AACTGCAAGG | 1.03
74 | TATCCTAAC | 1.1
75 | GTGCTGATAG | 0.992
76 | GGACGAATTT | 1.05
77 | TTACCGGCCT | 1.03
78 | CGTTCAGATG | 1.05
79 | GGCGGGGCGC | 1.06
80 | TGCTGAGTCC | 1.01
81 | TTCGGTTTCG | 0.983
82 | GTCGGTGGC | 1.11
83 | TGTATTCAAC | 1
84 | ATGTATTGCC | 0.979
85 | ACTCTTGCCT | 1.07
86 | AACTTTATAA | 0.992
87 | ATCGGGGCTG | 1.03
88 | TGGGTGACT | 0.99
89 | GACCACTCCT | 1.15
90 | CTAATCCTAT | 0.986
91 | AGGTGATCAC | 1.05
92 | ATGGTGGACC | 1.05

Row | Sequence | switch fluorescence ratio
93 | TCGTTGTAGT | 1.01
94 | TAGGGGCACC | 0.995
95 | AGGTGTGCCC | 1
96 | CGGAACGTAA | 1.2
97 | GTATCGCTTA | 1.03
98 | ATTCTTATC | 0.941
99 | GTTCAGCGTT | 0.994
100 | TGCGTAGCAT | 0.993
101 | GTTTATAGAC | 1.01
102 | TTAGAATCCT | 1.04
103 | ACGGGTCGCC | 0.979
104 | AGACTACAGC | 0.985
105 | ATATCTATG | 0.992
106 | TTGGGGTTT | 0.988
107 | CCCCGGCCCG | 1.19
108 | CCTTAACAGT | 1.03
109 | TTCGTTCATT | 1.02
110 | TCTTCTGAGT | 0.976
111 | GGGCAGTTTA | 0.995
112 | CAGCGGAACC | 1.08
113 | ATTGACACCT | 1.23
114 | ATACTATGTA | 0.954
115 | GAAAGGTTAC | 1.05

Row | Sequence | switch fluorescence ratio
116 | AGGCCTACTA | 1.04
117 | ACATTTGGCC | 1.02
118 | ACAGCGGA | 1.1
119 | TTGGAAGAGG | 0.991
120 | GATAAACTTT | 0.984
121 | TCTAGCTGAC | 1.55
122 | TGGTTAGGAC | 0.987
123 | CCGCCCGGGG | 1.2
124 | ACCGAAGTTT | 1.25
125 | TTCCGTTCTG | 0.986
126 | AAATAACCTT | 1.52
127 | GTCGATCTCG | 0.975
128 | TCATTGCCAG | 1.02
129 | GACTCGTAAC | 1.33
130 | CAATTCTATC | 0.929
131 | ACATAGCGAT | 1.96
132 | ACTAGGATGC | 0.987
133 | GATACCTATT | 1.06
134 | TAGTGGTGTC | 0.977
135 | CGGGGAAAAT | 0.997
136 | CTAGAGTGAC | 1.01
137 | GCTCGGATTT | 1.02
138 | CGAAATGGA | 0.957

Row | Sequence | switch fluorescence ratio
139 | TTCTTAGATC | 0.988
140 | AGAAGCAGAT | 0.999
141 | GGGCGTATTA | 0.997
142 | TCCAGTTGGG | 0.989
143 | CGGACAACGG | 1.07
144 | AAGGGGGCTG | 0.951
145 | TCGCTCGGTT | 0.996
146 | TACCAGATGT | 1.08
147 | GCAATGATTT | 1.05
148 | CGTCACAGGA | 1
149 | AGAGACGGT | 1
150 | GGGAAGTAT | 0.997
151 | GCACTATCAA | 1.07
152 | GTTCTTTAG | 1.01
153 | CAGTCGGGGC | 1
154 | CGGTTGAGTC | 1.04
155 | TTAACGCCGG | 0.946
156 | GCGAGAGAGA | 1.02
157 | AGGCAATGAG | 1.08
